From PubChem BioAssay (Tox21)
Where “and” joins values, the source holds several entries; their conditions need not be identical. Equal values may be shown once. Inconclusive means that the source gave no clear call. Such entries were picked first, then a sample of the others. For some of these results: Potencies beside an inconclusive call are fits to weak or partial responses and may not hold up. Where a structure was tested more than once in an assay, its records may differ in their call. Calls of active or inactive are those of the source. Unless noted, calls come from the whole dose curve; as a rule, active = well fitted curve in the direction sought with a large enough effect in the repeat runs; inconclusive = weak or mixed curves; inactive = no such curve, though single readings can be large; an effect the other way counts as inactive or inconclusive.

Experiments:
[1] = qHTS assay to identify small molecule that activate the aryl hydrocarbon receptor (AhR) signaling pathway - cell viability counter screen (AID 743086); note: nearly all actives have a fitted effect of over 45% in size; note: potency is the fitted concentration of half-maximal effect
How it was run: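 HepG2-AhR-luc (HG2L7.5c1) cells, 4000/well, treated 24 h at 37 C with compound; viability measured as CellTiter-Fluor fluorescence after 30 min in the same wells as the luciferase read.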

[2] = qHTS assay to identify small molecule antagonists of the peroxisome proliferator-activated receptor gamma (PPARg) signaling pathway - cell viability counter screen (AID 743194); conditions: PPARg-bla HEK293H viability, CellTiter-Glo luminescence, 17 h, co-treated with 50 nM rosiglitazone; activity change, negative = cytotoxicity: at 62.6 µM (top of the series) unless noted; note: potency is the fitted concentration of half-maximal effect; nearly all actives have a fitted effect of over 55% in size
How it was run: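 Cytotoxicity counter screen in PPARg-bla HEK293H cells, same wells as reporter assay. Compounds plus 50 nM rosiglitazone (final) for 17 h at 37 C, then viability read by CellTiter-Glo luminescence.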

[3] = qHTS assay for small molecule agonists of the antioxidant response element (ARE) signaling pathway (AID 743202; active = well fitted activation curve with a large enough effect in the signal ratio in the repeat runs, not every such curve was filed as active; inconclusive = weak or mixed curves, or effect the other way; inactive = no such curve, though single readings can be large or run the other way; the % refers to the signal ratio; note: potency is the fitted concentration of half-maximal effect; for activation: % is set by controls: 0 for no effect and ±100 for the full control effect); conditions: HepG2 ARE-bla reporter, beta-lactamase FRET, 16 h; activation: at 73.3 µM (top of the series) unless noted
How it was run: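 HepG2 ARE-bla reporter line, 2,000 cells/well; 5 h preincubation 37 C/5% CO2; compound (DMSO) 16 h 37 C; B/G FRET substrate 2 h RT; fluorescence intensity.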

[4] = qHTS assay for small molecule agonists of the antioxidant response element (ARE) signaling pathway - cell viability counter screen (AID 743203; calls by dose curve; note: potency is the fitted concentration of half-maximal effect; nearly all actives have a fitted effect of over 55% in size); conditions: ARE-bla HepG2 viability, CellTiter-Glo luminescence, 16 h; viability change, negative = cytotoxic: at 73.3 µM (top of the series)
How it was run: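 ATP content via CellTiter-Glo luminescence served as the viability measure. Cells: ARE-bla HepG2, 2,000 per well. Exposure: 16 hrs, 37C/5% CO2.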

[5] = qHTS assay for small molecule activators of the heat shock response signaling pathway - cell viability counter screen (AID 743209); conditions: HSE-bla HeLa viability, CellTiter-Glo luminescence, 5 h; activity change, negative = cytotoxicity: at 62.6 µM (top of the series) unless noted; note: nearly all actives have a fitted effect of over 50% in size; note: potency is the fitted concentration of half-maximal effect
How it was run: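 Compounds dissolved in DMSO were added to overnight-plated HSE-bla HeLa cells and left 5 h at 37 C. Cell viability was quantified by luminescence using CellTiter-Glo.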

[6] = qHTS assay for small molecule activators of the heat shock response signaling pathway (AID 743210; active = well fitted activation curve with a large enough effect in the signal ratio in the repeat runs, with a control signal flat, not every such curve was filed as active; inconclusive = weak or mixed curves; the % refers to the signal ratio; note: potency is the fitted concentration of half-maximal effect); conditions: HeLa HSE-bla reporter, beta-lactamase ratio, 5 h; activation: at 62.6 µM (top of the series)
How it was run: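 Beta-lactamase reporter read-out: FRET substrate fluorescence after 2.5 h at RT, following 5 h compound treatment at 37 C of HeLa cells carrying HSE-driven bla reporter; quantitative HTS format.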

[7] = qHTS assay to identify small molecule antagonists of the peroxisome proliferator-activated receptor delta (PPARd) signaling pathway - cell viability counter screen (AID 743213); conditions: PPARd-bla HEK293H viability, CellTiter-Glo luminescence, 17 h; viability change, negative = cytotoxic: at 62 µM (top of the series) unless noted; note: nearly all actives have a fitted effect of over 50% in size; note: potency is the fitted concentration of half-maximal effect; for viability change, negative = cytotoxic: % is set by controls: 0 for no effect and ±100 for the full control effect
How it was run: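 In this counter screen, HEK293H cells carrying a UAS-beta-lactamase reporter are co-treated with test compounds and 300 nM L165041 (final) for 17 h at 37 C; cell viability is quantified by CellTiter-Glo luminescence.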

[8] = biological target: Bile acid receptor (Homo sapiens) (UniProt Q96RI1); assay: qHTS assay to identify small molecule antagonists of the farnesoid-X-receptor (FXR) signaling pathway (AID 743217; active = well fitted inhibition curve with a large enough effect in the signal ratio in the repeat runs, not every such curve was filed as active; inconclusive = weak or mixed curves, or effect the other way; inactive = no such curve, though single readings can be large or run the other way; the % refers to the signal ratio; note: potency is the fitted concentration of half-maximal effect); conditions: HEK293T FXR-UAS-bla, beta-lactamase ratio, CDCA-stimulated, 16 h; activity change, negative = inhibition: at 62.6 µM (top of the series) unless noted
UniProt Q96RI1, sequence (Q96RI1 whole entry, looked up): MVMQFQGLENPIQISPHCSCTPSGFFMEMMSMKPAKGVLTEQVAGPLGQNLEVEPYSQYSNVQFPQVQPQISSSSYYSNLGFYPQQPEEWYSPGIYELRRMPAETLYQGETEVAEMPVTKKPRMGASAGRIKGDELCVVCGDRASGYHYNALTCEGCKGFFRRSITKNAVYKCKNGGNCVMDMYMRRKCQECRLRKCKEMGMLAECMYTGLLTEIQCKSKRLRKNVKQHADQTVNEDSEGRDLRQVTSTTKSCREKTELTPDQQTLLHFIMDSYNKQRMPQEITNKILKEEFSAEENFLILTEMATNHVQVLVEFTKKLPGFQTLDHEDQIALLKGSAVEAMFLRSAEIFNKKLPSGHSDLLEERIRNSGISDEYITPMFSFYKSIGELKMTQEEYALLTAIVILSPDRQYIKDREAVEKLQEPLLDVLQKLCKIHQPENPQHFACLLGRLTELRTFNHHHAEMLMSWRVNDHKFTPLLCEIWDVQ
How it was run: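 Test compounds are pin-transferred onto FXR-bla HEK 293T cells, then chenodeoxycholic acid is added at 50 uM final. After 16 h at 37 °C, LiveBLAzer B/G substrate is applied for 2 h at room temperature and fluorescence read.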

[9] = qHTS assay to identify small molecule agonists of the farnesoid-X-receptor (FXR) signaling pathway - cell viability counter screen (AID 743218); conditions: FXR-bla HEK293T viability, CellTiter-Glo luminescence, 16 h; viability change, negative = cytotoxic: at 62.6 µM (top of the series) unless noted; note: potency is the fitted concentration of half-maximal effect; nearly all actives have a fitted effect of over 45% in size
How it was run: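 Quantitative HTS counter screen measuring ATP-based viability via CellTiter-Glo luminescence in HEK 293T cells carrying a UAS-driven beta-lactamase reporter, after 16 h compound exposure at 37 C.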

[10] = qHTS assay to identify small molecule agonists of the vitamin D receptor (VDR) signaling pathway - cell viability counter screen (AID 743224); conditions: VDR-bla HEK293T viability, CellTiter-Glo luminescence, 16 h; activity change, negative = cytotoxicity: at 62.6 µM (top of the series) unless noted; note: potency is the fitted concentration of half-maximal effect; nearly all actives have a fitted effect of over 50% in size
How it was run: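 CellTiter-Glo viability readout on VDR-bla cells, measured after 16 h of compound treatment at 37C in the same wells.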

[11] = qHTS assay to identify small molecule antagonists of the vitamin D receptor (VDR) signaling pathway - cell viability counter screen (AID 743225); conditions: VDR-bla HEK293T viability, CellTiter-Glo luminescence, 16 h; viability change, negative = cytotoxic: at 61 µM (top of the series) unless noted; note: potency is the fitted concentration of half-maximal effect; nearly all actives have a fitted effect of over 50% in size
How it was run: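 Parallel cytotoxicity test: VDR-UAS-bla HEK 293T, 3 nM (final) 1-alpha,25-dihydroxyvitamin D3 with test compound, 16 h, 37C. Endpoint is CellTiter-Glo luminescence in the same wells.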

[12] = biological target: Peroxisome proliferator-activated receptor gamma (Homo sapiens) (UniProt P37231); assay: qHTS assay to identify small molecule antagonists of the peroxisome proliferator-activated receptor gamma (PPARg) signaling pathway (AID 743191; calls by dose curve; note: nearly all actives have a fitted effect of over 30% in size; note: potency is the fitted concentration of half-maximal effect); conditions: HEK293H PPARg-UAS-bla, beta-lactamase ratio, antagonist, 17 h; ratio activity, negative = inhibition: at 62.6 µM (top of the series) unless noted
UniProt P37231, sequence (P37231 whole entry, looked up): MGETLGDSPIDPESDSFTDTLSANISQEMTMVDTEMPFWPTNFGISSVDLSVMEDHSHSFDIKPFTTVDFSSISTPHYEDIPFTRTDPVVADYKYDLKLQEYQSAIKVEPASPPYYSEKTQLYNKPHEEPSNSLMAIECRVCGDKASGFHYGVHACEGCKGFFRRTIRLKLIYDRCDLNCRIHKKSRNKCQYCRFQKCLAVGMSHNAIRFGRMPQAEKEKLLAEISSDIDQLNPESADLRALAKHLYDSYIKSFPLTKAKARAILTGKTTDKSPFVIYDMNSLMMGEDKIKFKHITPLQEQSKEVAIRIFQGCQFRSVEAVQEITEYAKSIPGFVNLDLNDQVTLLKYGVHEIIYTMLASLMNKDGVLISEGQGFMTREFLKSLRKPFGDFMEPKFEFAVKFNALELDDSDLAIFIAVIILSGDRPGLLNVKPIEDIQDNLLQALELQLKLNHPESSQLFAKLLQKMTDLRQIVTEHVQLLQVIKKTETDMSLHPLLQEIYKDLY
How it was run: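 GeneBLAzer PPARg UAS-bla HEK293H cells, 5 h post-plating, exposed to compounds 17 h at 37C. LiveBLAzer B/G FRET substrate added for 1 h at room temperature; beta-lactamase reporter read by fluorescence intensity.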

[13] = qHTS assay to identify small molecule agonists of the peroxisome proliferator-activated receptor delta (PPARd) signaling pathway - cell viability counter screen (AID 743211); conditions: PPARd-bla HEK293H viability, CellTiter-Glo luminescence, 17 h; activity change, negative = cytotoxicity: at 62.6 µM (top of the series); note: potency is the fitted concentration of half-maximal effect; nearly all actives have a fitted effect of over 55% in size
How it was run: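 qHTS cell viability: PPARd-bla HEK293H; 17 h cpd, 37C; CellTiter-Glo, luminescence at 30 min RT.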

[14] = biological target: Peroxisome proliferator-activated receptor delta (Homo sapiens) (UniProt Q03181); assay: qHTS assay to identify small molecule agonists of the peroxisome proliferator-activated receptor delta (PPARd) signaling pathway (AID 743212; calls by dose curve; note: potency is the fitted concentration of half-maximal effect); conditions: HEK293H PPARd-UAS-bla, beta-lactamase FRET ratio, 17 h; activation: at 62.6 µM (top of the series) unless noted
UniProt Q03181, sequence (Q03181 whole entry, looked up): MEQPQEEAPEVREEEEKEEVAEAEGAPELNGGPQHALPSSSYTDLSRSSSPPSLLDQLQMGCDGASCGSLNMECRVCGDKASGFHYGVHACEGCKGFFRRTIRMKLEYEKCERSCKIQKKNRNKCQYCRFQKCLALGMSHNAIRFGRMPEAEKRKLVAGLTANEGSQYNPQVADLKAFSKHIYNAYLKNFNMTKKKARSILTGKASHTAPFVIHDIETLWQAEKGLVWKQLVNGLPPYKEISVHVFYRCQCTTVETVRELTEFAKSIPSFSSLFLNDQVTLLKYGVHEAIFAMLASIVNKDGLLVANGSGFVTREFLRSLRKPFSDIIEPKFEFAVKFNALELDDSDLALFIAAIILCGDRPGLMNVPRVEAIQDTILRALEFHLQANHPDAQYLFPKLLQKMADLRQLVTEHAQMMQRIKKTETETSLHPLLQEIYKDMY
How it was run: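 Read-out: beta-lactamase FRET fluorescence after 2 h room-temperature incubation with LiveBLAzer B/G substrate. Cells were HEK293H carrying a UAS-bla reporter for PPARd, treated at 37 C with DMSO-dissolved compounds.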

[15] = biological target: Peroxisome proliferator-activated receptor delta (Homo sapiens) (UniProt Q03181); assay: qHTS assay to identify small molecule antagonists of the peroxisome proliferator-activated receptor delta (PPARd) signaling pathway (AID 743215; active = well fitted inhibition curve with a large enough effect in the signal ratio in the repeat runs, not every such curve was filed as active; inconclusive = weak or mixed curves, or effect the other way; inactive = no such curve, though single readings can be large or run the other way; the % refers to the signal ratio;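 note: cells stimulated with agonist L165041 at 300 nM final during compound exposure; potency is the fitted concentration of half-maximal effect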); conditions: HEK293H PPARd-UAS-bla, beta-lactamase FRET ratio, antagonist, 17 h; ratio activity, negative = inhibition: at 62 µM (top of the series) unless noted
How it was run: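 Here, a reporter line (HEK293H, beta-lactamase under a UAS) measures PPARd signaling. Compounds are tested against agonist L165041 at 300 nM final concentration over 17 h at 37 C, with fluorescence read after substrate.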

[16] = biological target: Bile acid receptor (Homo sapiens) (UniProt Q96RI1); assay: qHTS assay to identify small molecule agonists of the farnesoid-X-receptor (FXR) signaling pathway (AID 743220; active = well fitted activation curve with a large enough effect in the signal ratio in the repeat runs, not every such curve was filed as active; inconclusive = weak or mixed curves, or effect the other way; the % refers to the signal ratio; note: potency is the fitted concentration of half-maximal effect); conditions: HEK293T FXR-UAS-bla, beta-lactamase FRET ratio, 16 h; activation: at 62.6 µM (top of the series) unless noted
How it was run: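 FXR-UAS-bla HEK 293T cells carrying a UAS-driven beta-lactamase reporter were plated for 5 h at 37C/5% CO2, then exposed to DMSO-dissolved Tox21 10K compounds for 16 h at 37C. A LiveBLAzer B/G FRET substrate was loaded for 2 h at room temperature before fluorescence reading.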

[17] = biological target: Vitamin D3 receptor (Homo sapiens) (UniProt P11473); assay: qHTS assay to identify small molecule agonists of the vitamin D receptor (VDR) signaling pathway (AID 743222; calls by dose curve; note: potency is the fitted concentration of half-maximal effect; for activation: % is set by controls: 0 for no effect and ±100 for the full control effect); conditions: HEK293T VDR-UAS-bla, beta-lactamase FRET ratio, 16 h; activation: at 63.5 µM (top of the series) unless noted
UniProt P11473, sequence (P11473 whole entry, looked up): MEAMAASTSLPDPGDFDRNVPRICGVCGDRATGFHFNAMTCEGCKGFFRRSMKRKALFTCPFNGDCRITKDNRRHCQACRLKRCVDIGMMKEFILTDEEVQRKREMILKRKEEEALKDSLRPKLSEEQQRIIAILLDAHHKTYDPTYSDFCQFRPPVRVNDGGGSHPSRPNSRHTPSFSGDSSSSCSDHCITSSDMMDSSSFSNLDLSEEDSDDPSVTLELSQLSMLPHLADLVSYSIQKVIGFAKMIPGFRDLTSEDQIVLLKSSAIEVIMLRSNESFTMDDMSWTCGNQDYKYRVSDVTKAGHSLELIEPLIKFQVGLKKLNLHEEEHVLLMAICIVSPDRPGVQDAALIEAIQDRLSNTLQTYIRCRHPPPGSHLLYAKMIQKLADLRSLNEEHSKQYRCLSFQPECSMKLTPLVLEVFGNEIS
How it was run: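 Tox21 cell reporter format: VDR-bla line, 16 h compound exposure in 5% CO2 at 37C, then fluorescence intensity after 2 h with LiveBLAzer B/G FRET substrate.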

[18] = biological target: Vitamin D3 receptor (Homo sapiens) (UniProt P11473); assay: qHTS assay to identify small molecule antagonists of the vitamin D receptor (VDR) signaling pathway (AID 743223; active = well fitted inhibition curve with a large enough effect in the signal ratio in the repeat runs, not every such curve was filed as active; inconclusive = weak or mixed curves, or effect the other way; inactive = no such curve, though single readings can be large or run the other way; the % refers to the signal ratio; note: potency is the fitted concentration of half-maximal effect); conditions: VDR-UAS-bla HEK293T, beta-lactamase FRET ratio, 16 h; activity change, negative = inhibition: at 61 µM (top of the series) unless noted
How it was run: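 Reporter line VDR-bla; stimulus 1alpha,25-(OH)2 vitamin D3, 3 nM final; compound co-addition, 16 h 37C/5% CO2; LiveBLAzer B/G substrate 2 h RT; fluorescence intensity.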

[19] = qHTS assay to identify small molecule antagonists of the farnesoid-X-receptor (FXR) signaling pathway - cell viability counter screen (AID 743221; active = well fitted cell-killing curve with a large enough effect in the repeat runs, not every such curve was filed as active; inconclusive = weak or mixed curves, or effect the other way; inactive = no such curve, though single readings can be large or run the other way); conditions: FXR-bla HEK293T viability, CellTiter-Glo luminescence, 16 h; activity change, negative = cytotoxicity: at 62.6 µM (top of the series)
How it was run: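 After a 5 h settling period, FXR-bla HEK 293T cells receive compound and chenodeoxycholic acid (50 uM final) and incubate 16 h at 37 C; CellTiter-Glo luminescence, read after 30 min at room temperature, reports cell viability.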

[20] = biological target: Peroxisome proliferator-activated receptor gamma (Homo sapiens) (UniProt P37231); assay: qHTS assay to identify small molecule agonists of the peroxisome proliferator-activated receptor gamma (PPARg) signaling pathway (AID 743094; active = well fitted activation curve with a large enough effect in the signal ratio in the repeat runs, not every such curve was filed as active; inconclusive = weak or mixed curves, or effect the other way; inactive = no such curve, though single readings can be large or run the other way; the % refers to the signal ratio; note: % is set by controls: 0 for no effect and ±100 for the full control effect); conditions: HEK293H PPARg-UAS-bla, beta-lactamase FRET ratio, 17 h; activation: at 57 µM (top of the series) unless noted
How it was run: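 Agonism was assessed in a beta-lactamase reporter system, HEK293H cells with a stably integrated UAS-bla construct under PPARg control; the 17 h treatment at 37C preceded a 1 h room-temperature FRET substrate read.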
Tags give direction and shape of the fitted curve or compound fluorescence and quenching.

In the case of O=C1c2c(O)ccc(O)c2C(=O)c2c(NCCNCCO)ccc(NCCNCCO)c21, the Potency [1] is reported as inconclusive: 8.04 µM [falling, partial curve], the Potency [2] is reported as inconclusive: 21.1 µM [cytotoxic, partial curve] and the activation [3] is reported as inconclusive: -71.9%. For the same compound, the Potency [4] was inconclusive: 6.68 µM [cytotoxic, full curve], the Potency [5] was inconclusive: 33.5 µM [cytotoxic, single point] and the Potency [6] was inconclusive: 27.6 µM. For the same compound, the Potency [7] was “inactive”, the Potency [8] was active: 26.6 µM and the Potency [9] was inconclusive: 33.5 µM [cytotoxic, single point]. The Potency [10] was inconclusive: 21.1 µM [cytotoxic, partial curve] and the Potency [11] was inconclusive: 23.9 µM [cytotoxic, partial curve, poor fit].
In the case of CC(C)(C)CC(C)(C)c1ccc(OCCOCC[N+](C)(C)Cc2ccccc2)cc1, the Potency [1] is reported as active: 61.1 µM, the Potency [12] is reported as inconclusive: 54.9 µM [cytotoxic] and inconclusive: 33.5 µM [cytotoxic] and the Potency [2] is reported as active: 19.5 µM and active: 29.8 µM. For the same compound, the Potency [6] was inconclusive: 52.8 µM and inconclusive: 33.5 µM, the Potency [13] was active: 21.9 µM and active: 21.1 µM and the Potency [14] was inconclusive: 61.6 µM and inconclusive: 33.5 µM. For the same compound, the Potency [7] was active: 17.4 µM and inconclusive: 21.1 µM [cytotoxic], the Potency [15] was inconclusive: 61.6 µM [cytotoxic, single point] and the Potency [8] was inconclusive: 61.6 µM [cytotoxic, single point]. For the same compound, the Potency [9] was active: 48.9 µM and inconclusive: 33.5 µM [cytotoxic], the Potency [16] was inconclusive: 54.9 µM [cytotoxic, single point] and the Potency [17] was inconclusive: 26.6 µM [inhibitor, partial curve]. The activation [17] was inconclusive: 8.55% and the Potency [18] was inconclusive: 54.9 µM [cytotoxic, single point] and inconclusive: 26.8 µM [single point].
For Nc1ccc(S(=O)(=O)Nc2cnc3ccccc3n2)cc1, the Potency [1] was “inactive”, the Potency [12] was “inactive” and the Potency [3] was “inactive”. For the same compound, the activity change, negative = inhibition [18] was inconclusive: 9.31%.
For COc1ccc(CCN2CCC(Nc3nc4ccccc4n3Cc3ccc(F)cc3)CC2)cc1, the Potency [1] was active: 23.7 µM and active: 9.9 µM, the Potency [2] was active: 4.46 µM and active: 26.6 µM and the Potency [5] was active: 17.8 µM and inactive. The Potency [6] was inconclusive: 35.4 µM [cytotoxic], the Potency [7] was active: 3.16 µM and active: 23.7 µM and the Potency [9] was active: 2.81 µM and active: 23.7 µM. For the same compound, the Potency [16] was inconclusive: 39.8 µM [cytotoxic, partial curve], the Potency [19] was active: 7.07 µM and active: 29.8 µM and the Potency [18] was inconclusive: 8.9 µM [full curve] and inconclusive: 26.8 µM [single point].
In the case of CCC(C)Nc1ccc(NC(C)CC)cc1 (stereo not given), the activation [20] is reported as inconclusive: 20% [at 78.9 µM], the Potency [12] is reported as inconclusive: 11.2 µM [rising, full curve] and the Potency [2] is reported as active: 12.5 µM. The Potency [3] was inconclusive: 14 µM [falling, full curve, poor fit], the Potency [4] was active: 7.84 µM and the Potency [5] was active: 22.3 µM. For the same compound, the Potency [6] was inconclusive: 41.2 µM, the Potency [13] was active: 12.5 µM and the Potency [14] was inconclusive: 22.3 µM [rising, partial curve, poor fit]. The Potency [7] was active: 22.3 µM, the Potency [15] was inconclusive: 22.3 µM [rising, partial curve, poor fit] and the Potency [8] was inconclusive: 11.2 µM. For the same compound, the Potency [9] was active: 22.3 µM, the Potency [19] was active: 35.3 µM and the Potency [17] was inconclusive: 22.3 µM [full curve]. The Potency [18] was inconclusive: 8.88 µM [rising, full curve] and the Potency [11] was active: 8.88 µM.
